Results from PMC4762780.
No constants are given. Whether binding was seen depends on the method and setting. Binding seen in cells or lysates may run through a third protein. Some results given as binding are weak or reduced against the parent protein; the word gives no strength. For part of these data: Where a sequence is shown, tags or fusion partners need not be part of it.

The chains behind the UniProt entries cited, without tags or fusion partners. Where a name states a change or a piece, a line headed by the entry shows the natural chain unless it says otherwise. A line that says so, or that is headed by a name, gives the form on record, which may keep a tag or linker.
FLAG-tagged WT MEF2C (myocyte enhancer factor 2C) (Q8CFN5-5, form named): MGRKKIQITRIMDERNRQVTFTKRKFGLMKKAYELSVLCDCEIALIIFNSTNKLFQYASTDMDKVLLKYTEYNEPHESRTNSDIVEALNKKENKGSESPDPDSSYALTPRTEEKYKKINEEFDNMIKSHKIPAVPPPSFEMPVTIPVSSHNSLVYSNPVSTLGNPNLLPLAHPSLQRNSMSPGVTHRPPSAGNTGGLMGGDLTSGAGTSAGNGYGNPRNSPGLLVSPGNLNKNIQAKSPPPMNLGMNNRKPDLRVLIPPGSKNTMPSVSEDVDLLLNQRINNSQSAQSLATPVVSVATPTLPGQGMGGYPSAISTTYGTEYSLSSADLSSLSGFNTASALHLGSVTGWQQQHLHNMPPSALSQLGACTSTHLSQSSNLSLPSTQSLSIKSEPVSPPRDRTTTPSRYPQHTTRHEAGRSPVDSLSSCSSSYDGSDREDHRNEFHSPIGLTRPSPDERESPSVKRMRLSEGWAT
UniProt Q02650: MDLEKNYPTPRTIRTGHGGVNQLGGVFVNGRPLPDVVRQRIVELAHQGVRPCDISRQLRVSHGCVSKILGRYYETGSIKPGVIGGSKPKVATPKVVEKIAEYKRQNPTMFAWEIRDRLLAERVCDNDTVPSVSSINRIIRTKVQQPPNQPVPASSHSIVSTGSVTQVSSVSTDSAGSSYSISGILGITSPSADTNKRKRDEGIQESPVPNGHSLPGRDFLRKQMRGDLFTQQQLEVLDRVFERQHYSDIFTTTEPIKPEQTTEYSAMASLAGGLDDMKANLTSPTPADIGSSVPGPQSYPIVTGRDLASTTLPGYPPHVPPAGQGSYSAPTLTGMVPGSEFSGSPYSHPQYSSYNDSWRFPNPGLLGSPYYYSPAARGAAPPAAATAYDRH

Experiments:
[1] = target: T1, Myc-tagged EBF1 (early B cell factor-1) (UniProt Q07802); test: co-IP; 293T cells co-transfected with FLAG-tagged WT, EED or AAA MEF2C and Myc-tagged EBF1; Myc-IP (EBF1 as bait) blotted with FLAG antibody (S1C Fig)
T1 sequence: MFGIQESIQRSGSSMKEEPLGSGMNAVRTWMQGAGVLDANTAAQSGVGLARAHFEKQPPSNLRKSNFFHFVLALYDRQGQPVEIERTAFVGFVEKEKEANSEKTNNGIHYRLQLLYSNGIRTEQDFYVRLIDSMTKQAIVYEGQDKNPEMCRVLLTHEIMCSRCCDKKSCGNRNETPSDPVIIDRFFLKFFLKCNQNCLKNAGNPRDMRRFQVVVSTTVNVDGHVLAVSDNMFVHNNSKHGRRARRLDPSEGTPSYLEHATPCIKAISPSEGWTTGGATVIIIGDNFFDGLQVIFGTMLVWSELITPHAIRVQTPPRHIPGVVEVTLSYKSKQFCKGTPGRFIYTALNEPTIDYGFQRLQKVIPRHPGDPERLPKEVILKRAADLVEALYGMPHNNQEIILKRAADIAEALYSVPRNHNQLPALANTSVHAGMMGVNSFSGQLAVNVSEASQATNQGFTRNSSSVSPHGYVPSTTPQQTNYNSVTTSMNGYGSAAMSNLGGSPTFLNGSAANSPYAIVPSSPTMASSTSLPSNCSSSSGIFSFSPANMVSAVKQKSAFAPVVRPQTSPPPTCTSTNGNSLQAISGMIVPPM

[2] = target: FLAG-tagged WT MEF2C (myocyte enhancer factor 2C) (UniProt Q8CFN5); test: co-IP; 293T cells co-transfected; lysis in 50mM HEPES, 140mM NaCl, 1mM EDTA, 0.5% Triton-X, 0.5% sodium deoxycholate; overnight IP with anti-FLAG M2 (MEF2C as bait); washed with high-salt lysis buffer (500mM NaCl); blotted with anti-Myc or anti-V5; for WT MEF2C and EBF1 also with benzonase treatment, which did not prevent co-IP

binding [1] | binding [2] | Substance
binds | – | FLAG-tagged WT MEF2C (myocyte enhancer factor 2C) (from UniProt Q8CFN5-5 1-472)
– | no binding | Myc-tagged PAX5 (from UniProt Q02650 1-391)
– | no binding | Myc-tagged E12 (E2A isoform) (from UniProt E9PWE2 1-653)
